Some of the results follow.
Columns and labels:
Assay in all cases: glycan array binding signal (z-score within array); higher = stronger binding
Conditions in all cases: glycan notation: IUPAC condensed, linker removed
[1] = target: Fuc(a1-2)Gal(b1-4)GlcNAc(b1-3)Gal(b1-4)GlcNAc(b1-3)Gal(b1-4)GlcNAc
Method in brief: (§1)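 Glycan array data came from 3228 arrays in the Consortium for Functional Glycomics database, and only arrays with an available protein sequence were kept. Glycan names were put into IUPAC-condensed notation, and columns mapping to the same glycan were averaged. The binding signal is a within-array Z-score, averaged across arrays of one protein sequence run at different concentrations or buffers and across linkers. A negative Z-score can be read as non-binding.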

[2] = target: Fuc(a1-2)Gal(b1-4)GlcNAc(b1-3)GalNAc
Method in brief: as §1

[3] = target: Fuc(a1-2)Gal(b1-4)GlcNAc(b1-3)[Fuc(a1-2)Gal(b1-4)GlcNAc(b1-6)]GalNAc
Method in brief: as §1

[4] = target: Fuc(a1-2)Gal(b1-4)GlcNAc(b1-3)[Fuc(a1-3)[Gal(b1-4)]GlcNAc(b1-6)]Gal(b1-4)Glc
Method in brief: as §1

[5] = target: Fuc(a1-2)Gal(b1-4)GlcNAc(b1-6)GalNAc
Method in brief: as §1

[6] = target: Fuc(a1-2)Gal(b1-4)GlcNAc6S
Method in brief: as §1

[7] = target: Fuc(a1-2)Gal(b1-4)[Fuc(a1-3)]GlcNAc
Method in brief: as §1

[8] = target: Fuc(a1-2)Gal(b1-4)[Fuc(a1-3)]GlcNAc(b1-2)Man(a1-3)[Fuc(a1-2)Gal(b1-4)[Fuc(a1-3)]GlcNAc(b1-2)Man(a1-6)]Man(b1-4)GlcNAc(b1-4)[Fuc(a1-6)]GlcNAc
Method in brief: as §1

[9] = target: Fuc(a1-2)Gal(b1-4)[Fuc(a1-3)]GlcNAc(b1-2)[Fuc(a1-2)Gal(b1-4)[Fuc(a1-3)]GlcNAc(b1-4)]Man(a1-3)[Fuc(a1-2)Gal(b1-4)[Fuc(a1-3)]GlcNAc(b1-2)Man(a1-6)]Man(b1-4)GlcNAc(b1-4)GlcNAc
Method in brief: as §1

[10] = target: Fuc(a1-2)Gal(b1-4)[Fuc(a1-3)]GlcNAc(b1-3)Gal(b1-4)[Fuc(a1-3)]GlcNAc
Method in brief: as §1

[11] = target: Fuc(a1-2)Gal(b1-4)[Fuc(a1-3)]GlcNAc(b1-3)Gal(b1-4)[Fuc(a1-3)]GlcNAc(b1-3)Gal(b1-4)[Fuc(a1-3)]GlcNAc
Method in brief: as §1

[12] = target: Fuc(a1-2)Gal(b1-4)[Fuc(a1-3)]GlcNAc(b1-3)GalNAc
Method in brief: as §1

[13] = target: Fuc(a1-2)Gal(b1-4)[Fuc(a1-3)]GlcNAc(b1-3)[Neu5Ac(a2-6)Gal(b1-4)GlcNAc(b1-6)]Gal(b1-4)Glc
Method in brief: as §1

[14] = target: Fuc(a1-2)Gal3S(b1-4)GlcNAc
Method in brief: as §1

[15] = target: Fuc(a1-2)Gal6S(b1-3)GlcNAc
Method in brief: as §1

[16] = target: Fuc(a1-2)Gal6S(b1-3)GlcNAc6S
Method in brief: as §1

[17] = target: Fuc(a1-2)Gal6S(b1-4)Glc
Method in brief: as §1

[18] = target: Fuc(a1-2)Gal6S(b1-4)Glc6S
Method in brief: as §1

[19] = target: Fuc(a1-2)[Gal(a1-3)]Gal
Method in brief: as §1

[20] = target: Fuc(a1-2)[Gal(a1-3)]Gal(b1-3)GalNAc
Method in brief: as §1

[21] = target: Fuc(a1-2)[Gal(a1-3)]Gal(b1-3)GalNAc(b1-3)Gal(a1-4)Gal(b1-4)Glc
Method in brief: as §1

[22] = target: Fuc(a1-2)[Gal(a1-3)]Gal(b1-3)GlcNAc
Method in brief: as §1

[23] = target: Fuc(a1-2)[Gal(a1-3)]Gal(b1-3)GlcNAc(b1-2)Man(a1-3)[Fuc(a1-2)[Gal(a1-3)]Gal(b1-3)GlcNAc(b1-2)Man(a1-6)]Man(b1-4)GlcNAc(b1-4)GlcNAc
Method in brief: as §1

[24] = target: Fuc(a1-2)[Gal(a1-3)]Gal(b1-3)GlcNAc(b1-2)Man(a1-3)[Fuc(a1-2)[Gal(a1-3)]Gal(b1-3)GlcNAc(b1-2)Man(a1-6)]Man(b1-4)GlcNAc(b1-4)[Fuc(a1-6)]GlcNAc
Method in brief: as §1

[25] = target: Fuc(a1-2)[Gal(a1-3)]Gal(b1-3)GlcNAc(b1-3)GalNAc
Method in brief: as §1

[26] = target: Fuc(a1-2)[Gal(a1-3)]Gal(b1-3)GlcNAc(b1-6)GalNAc
Method in brief: as §1

[27] = target: Fuc(a1-2)[Gal(a1-3)]Gal(b1-4)Glc
Method in brief: as §1

[28] = target: Fuc(a1-2)[Gal(a1-3)]Gal(b1-4)GlcNAc
Method in brief: as §1

[29] = target: Fuc(a1-2)[Gal(a1-3)]Gal(b1-4)GlcNAc(b1-2)Man
Method in brief: as §1

[30] = target: Fuc(a1-2)[Gal(a1-3)]Gal(b1-4)GlcNAc(b1-2)Man(a1-3)[Fuc(a1-2)[Gal(a1-3)]Gal(b1-4)GlcNAc(b1-2)Man(a1-6)]Man(b1-4)GlcNAc(b1-4)GlcNAc
Method in brief: as §1

B1: Cohesin-hLangerin (Homo sapiens) (protein)
chain: LDDLDAVRIKVDTVNAKPGDTVRIPVRFSGIPSKGIANCDFVYSYDPNVLEIIEIEPGDIIVDPNPDKSFDTAVYPDRKIIVFLFAEDSGTGAYAITKDGVFATIVAKVKEGAPNGLSVIKFVEVGGFANNDLVEQKTQFFDGGANVGDTTEPATPTTPVTTPTTTDDLDAASYPRFMGTISDVKTNVQLLKGRVDNISTLDSEIKKNSDGMEAAGVQIQMVNESLGYVRSQFLKLKTSVEKANAQIQILTRSWEEVSTLNAQIPELKSDLEKASALNTKIRALQGSLENMSKLLKRQNDILQVVSQGWKYFKGNFYYFSLIPKTWYSAEQFCVSRNSHLTSVTSESEQEFLYKTAGGLIYWIGLTKAGMEGDWSWVDDTPFNKVQSARFWIPGEPNNAGNNEHCGNIKAPSLQAWNDAPCDKTFLFICKRPYVPSEPHHHHHH
- glycan array binding signal (z-score) [1]: 0.552
- glycan array binding signal (z-score) [2]: -0.294
- glycan array binding signal (z-score) [3]: -0.344
- glycan array binding signal (z-score) [4]: -0.446
- glycan array binding signal (z-score) [5]: -0.095
- glycan array binding signal (z-score) [6]: -0.352
- glycan array binding signal (z-score) [7]: -0.276
- glycan array binding signal (z-score) [8]: 0.376
- glycan array binding signal (z-score) [9]: 0.939
- glycan array binding signal (z-score) [10]: -0.41
- glycan array binding signal (z-score) [11]: -0.145
- glycan array binding signal (z-score) [12]: -0.38
- glycan array binding signal (z-score) [13]: -0.441
- glycan array binding signal (z-score) [14]: 2.43
- glycan array binding signal (z-score) [15]: -0.321
- glycan array binding signal (z-score) [16]: 1.01
- glycan array binding signal (z-score) [17]: -0.399
- glycan array binding signal (z-score) [18]: -0.388
- glycan array binding signal (z-score) [19]: 1.79
- glycan array binding signal (z-score) [20]: -0.369
- glycan array binding signal (z-score) [21]: -0.417
- glycan array binding signal (z-score) [22]: 0.016
- glycan array binding signal (z-score) [23]: 2.29
- glycan array binding signal (z-score) [24]: 3.97
- glycan array binding signal (z-score) [25]: -0.381
- glycan array binding signal (z-score) [26]: -0.238
- glycan array binding signal (z-score) [27]: 0.032
- glycan array binding signal (z-score) [28]: -0.394
- glycan array binding signal (z-score) [29]: -0.228
- glycan array binding signal (z-score) [30]: -0.058
